Assay results reported in PubChem BioAssay AID1346428 (National Center for Advancing Translational Sciences (NCATS), 2018).
In all, about 48,000 compounds went through this assay and about 1,200 (2.5%) were called active. Inconclusive results (about 2%) are left out.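 Rule for the calls: active = activation of at least 60% and not above a set upper limit (about 1 call in 100 departs from these limits); inconclusive = activation of 40% to 60%, or above that upper limit; inactive = activation under 40%.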 The list shows a part of the results.

target: Probable G-protein coupled receptor 32 (Homo sapiens) (UniProt O75388); test: qHTS for Agonists of Human Resolvin D1 Receptor DRV1; details: CHO-K1 GPR32 beta-arrestin PathHunter luminescence, 90 min; at 76.9 µM; stronger effect = higher value; zero percent set by DMSO-only wells; note: 0% is about no effect
In short: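 Readings come from a cell-based beta-arrestin complementation format: CHO-K1 GPR32 stable cells (2,500/well) treated 90 min with compounds, then beta-Gal substrate added for 1 h before chemiluminescence imaging.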

Sequence of UniProt O75388 (O75388 whole entry, looked up): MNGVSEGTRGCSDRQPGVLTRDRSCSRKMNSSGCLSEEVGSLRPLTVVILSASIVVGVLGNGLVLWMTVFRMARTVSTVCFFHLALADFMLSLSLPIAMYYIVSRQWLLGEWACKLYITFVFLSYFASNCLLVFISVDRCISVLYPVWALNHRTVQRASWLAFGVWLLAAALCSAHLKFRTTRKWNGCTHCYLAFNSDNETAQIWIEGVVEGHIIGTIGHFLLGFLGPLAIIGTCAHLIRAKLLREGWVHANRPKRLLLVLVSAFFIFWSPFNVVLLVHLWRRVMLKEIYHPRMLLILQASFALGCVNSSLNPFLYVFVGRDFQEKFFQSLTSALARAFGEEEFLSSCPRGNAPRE

activation, inactive:
Cc1ccc(Cl)cc1NC(=O)CSc1nccn1C -10.5%, Cc1cc(C)cc(NC(=O)CSc2nc(=O)n(CCN3CCOCC3)c3c2CCC3)c1 -0.887%, O=C(NCc1cccs1)c1ccc2c(c1)N(Cc1cccc(F)c1)C(=O)c1ccccc1S2 -4.28%, CCOC(=O)c1noc2nc(C)n(CC(=O)NC(C)CC)c(=O)c12 (stereo not drawn) -9.47%, CC(=O)c1cccc(NC(=O)CSc2nc(=O)n(Cc3ccco3)c3c2CCC3)c1 11.6%, CCOc1ccccc1CNC(=O)c1ccc2c(c1)N(Cc1ccc(C)cc1)CCS2 -27.1%, CCCCN(CC)C(=O)c1nn(C)c2c1CSc1ccccc1-2 -11%, Cc1oc(-c2cccc(Cl)c2)nc1CS(=O)(=O)CC(=O)NC(C)CCc1ccccc1 (stereo not drawn) 15.6%, O=C(CCC1N=C2c3ccccc3N=C(SCc3ccc(F)cc3)N2C1=O)NCCc1ccccc1 (stereo not drawn) -33.7%, CCOc1ccc(/C=C/c2nc(C#N)c(NCc3ccccc3)o2)cc1 -14.1%, O=C(NCCc1ccccc1Cl)C1CCN(c2nc3ccccc3nc2C(F)(F)F)CC1 -36.4%, COc1ccc(-n2c(-c3ccco3)nc3c(cnn3-c3ccc(Cl)cc3)c2=O)cc1 30.4%, CC1(C)O[C@H]2[C@@H](O1)[C@@H](C(=O)Nc1ccccc1C(F)(F)F)O[C@@H]1OC(C)(C)O[C@@H]12 -0.883%, O=C(CSc1ccc(-c2cccs2)nn1)Nc1ccccc1C(F)(F)F -7.46%, Cc1ccc(NC(=O)C2CCCN(C(=O)c3cnn(-c4ccc(F)cc4)c3-n3cccc3)C2)c(Cl)c1 (stereo not drawn) -2.12%, Cc1ccccc1CNC(=O)C(C)N(c1ccccc1)S(C)(=O)=O (stereo not drawn) -7.86%, COc1cccc(OC)c1OCCNCC1COc2ccccc2O1 (stereo not drawn) 0.687%, COc1ccc(Cl)cc1NC(=O)C(C)Sc1nc2c(c(=O)[nH]1)CCCC2 (stereo not drawn) 15.7%, Cc1sc2ncn(CC(=O)Nc3ccc(C(C)C)cc3)c(=O)c2c1S(=O)(=O)N1CCN(c2ncccn2)CC1 0.282%, Cc1cccc(-c2noc(-c3cccnc3NCc3ccc(Cl)cc3)n2)c1 -7.06%, CC1(C)N=C(SCc2ccccc2Cl)c2ccccc2N1 -5.04%, Cc1ccc(S(=O)(=O)c2nnn3c2nc(NC(C)C)c2cc(Cl)ccc23)cc1C -0.0247%, COc1ccc2c(c1)sc1ncc(C(=O)NCc3ccccc3F)c(=O)n12 -8.07%
